The results in this text go back to PubChem BioAssay AID1963576 (National Center for Advancing Translational Sciences (NCATS), 2024).

The campaign covered roughly 46,000 compounds. About 60 (0.1%) were called active. Inconclusive results (about 3%) are left out. Calls come from the whole dose curve; as a rule, active = well fitted inhibition curve with a large enough effect; inconclusive = small, poorly fitted or top-dose-only effect; inactive = no such curve, though single readings can be large or run the other way. The list shows a part of the results.

The nature of the experiment: Primary qHTS assay for Inhibitors of ovarian cancer metastasis using an organotypic tumor microenvironment (TME) model.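 For activity change, negative = inhibition: plate controls were DMSO wells for no effect and tomatine positive control wells for full effect.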 Note: nearly all actives have a fitted effect of over 65% in size. The settings on record: SKOV3ip1-GFP adhesion/invasion on 3D omental model, fluorescence; series mostly up to 45.8 µM; activity change, negative = inhibition: at the top concentration. The method, boiled down:
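Adhesion/invasion was scored as fixed GFP-labeled SKOV3ip1 cell counts (488/509 nm), normalized to DMSO and tomatine controls. Cancer cells in serum-free medium, with four compound doses (0.36-46 umol/L), sat 2 hr at RT then 16 hr at 37 C on a 48 hr fibroblast/mesothelial/ECM culture.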
For `COc1ccc(CCNC(=O)Cn2c(=O)c3cccn3c3ccccc32)cc1OC`, the “activity change, negative = inhibition” value is inactive: -2.97%. Same read-out and setting: with `CCCc1nn2c(=O)cc(COC(=O)c3ccco3)nc2s1` the figure was inactive: -3.62%; with `Cc1noc(Cn2c(=O)c3ccccc3n(CC(=O)Nc3ccc(C(C)C)cc3)c2=O)n1`, inactive: -0.528%. In the case of `COC(=O)c1c(NC(=O)/C=C/c2ccc(OC)c(OC)c2)sc2c1CCC2`, the molecule was classed as inactive. Consider `CCN(CC)c1cc2c(cc1F)c(=O)c(S(=O)(=O)c1ccccc1)cn2C`, for which the “activity change, negative = inhibition” value was inactive: -2.7%. The same measure, in the same setting: with `CCn1cc(S(=O)(=O)c2ccc(C)cc2C)c(=O)c2cc(F)c(N3CCCCC3)cc21` the figure was inactive: -2.29%; with `Cc1cc(C)cc(N(CC(=O)NCc2ccccc2Cl)S(=O)(=O)c2c(C)[nH]c(=O)[nH]c2=O)c1`, inactive: 0.797%. `CCOC(=O)Cn1c(=O)n(CC2CCCO2)c2nc(-c3c(F)cccc3Cl)nc(C(N)=O)c21` (stereo unspecified): the call was inactive. As for `CCc1cccc(NS(=O)(=O)c2cc(-c3cnc(C)o3)ccc2OC)c1`, the “activity change, negative = inhibition” value was inactive: 67.2%. For `CCc1ccccc1NS(=O)(=O)c1cc(Br)cc2c1N(C(=O)C1CC1)CC2`, the “activity change, negative = inhibition” value was inactive: -1.85%. The same measure, in the same setting: with `CCN(CC)c1ccc(NC(=O)CN2C(=O)c3cccnc3Oc3ccc(Cl)cc32)c(C)c1` the figure was inactive: 8.59%; with `O=C(NCc1ccccc1)c1ccc2c(c1)nc1n2CCOC1`, inactive: -4.64%. For the molecule `COCCNC(=O)CSc1nnc2[nH]c(=O)cc(C)n12`, the outcome was inactive. For `CC(Nc1oc(-c2ccc(COc3ccc(Cl)cc3)o2)nc1C#N)c1ccccc1` (stereo unspecified), the “activity change, negative = inhibition” value was inactive: 8.18%. Still for that read-out and setting: under `CCN(CC)CCCNC(=O)CN1C(=O)COc2ccc(S(=O)(=O)N3CCC(C)CC3)cc21` stands inactive: 58.5%; under `CCOC(=O)c1ccc(NC(=O)c2cc3c([nH]c2=O)CC(c2ccccc2)CC3=O)cc1` (stereo unspecified), inactive: 8.98%. Still for that read-out and setting: under `COc1ccc(C(=O)Nc2nc3n(n2)C(c2ccc(F)cc2)C=C(c2ccc(Cl)cc2)N3)cc1` (stereo unspecified) stands inactive: -9.37%. For `CCn1c(=O)c2sccc2n2c(CCCC(=O)Nc3ccc(OC)c(OC)c3)nnc12`, the “activity change, negative = inhibition” value was inactive: -8.84%. In the case of `Cc1cc(C)n(C(C)CC(=O)Nc2ccc(C)c(F)c2)n1` (stereo unspecified), the “activity change, negative = inhibition” value was inactive: -29.1%. Still for that read-out and setting: under `Cc1ccccc1Cn1c(SCc2ccc(C(=O)NCCc3ccccc3)cc2)nc2ccncc21` stands inactive: -2.11%; under `CSc1ncc(Cl)c(C(=O)N(Cc2ccc(C(C)C)cc2)C2CCS(=O)(=O)C2)n1` (stereo unspecified), inactive: -9.61%. Turning to `O=C(CC1N=C2c3ccccc3N=C(SCC(=O)Nc3ccc(F)cc3)N2C1=O)NCc1ccc2c(c1)OCO2` (stereo unspecified), the molecule was called inactive.

Turning to `COc1cccc(-c2n[nH]c3c2C(c2ccccn2)N(C)C3=O)c1` (stereo unspecified), the “activity change, negative = inhibition” value is inactive: -2.52%. As for `Cc1cccc(NC(=O)Cn2cc(S(=O)(=O)Cc3ccccc3Cl)c3ccccc32)c1`, the outcome was inactive. As for `COc1ccc(-n2cc(-c3ccc4c(c3)OCO4)n(CC(=O)Nc3cccc(C)c3)c2=O)cc1`, the “activity change, negative = inhibition” value is inactive: 1.19%. Turning to `CCCCC1CCC(CCCC(C)CCC(=O)O)CC1` (stereo unspecified), the “activity change, negative = inhibition” value is inactive: 7.65%. The same measure, in the same setting: under `CCC1CN(C(=O)N2CCC(C(=O)NCc3ccco3)CC2)c2ccccc2O1` (stereo unspecified) stands inactive: -0.919%; under `Cc1ccc(-n2c(SCC(=O)Nc3c(C)cccc3C)nc(O)c(C)c2=O)cc1`, inactive: -2%; under `COCCNC(=O)C(=O)NCC(c1cccnc1)N1CCN(c2ccccc2)CC1` (stereo unspecified), inactive: 9.76%. For `Cc1ccccc1C(c1c(C)n(C)n(-c2ccccc2)c1=O)c1c(C)n(C)n(-c2ccccc2)c1=O`, the outcome was inactive. As to `O=C(Cc1ccc(Cl)cc1)Nc1ccc2nn(-c3ccccc3)nc2c1`, the “activity change, negative = inhibition” value was inactive: 2.82%.

For `N#CC(=Cc1ccc(O)c(O)c1)C(=O)NCc1ccccc1`, the “activity change, negative = inhibition” value was inactive: -5.02%. The same measure, in the same setting: under `Cc1cc(C)c(CN2C(=O)c3ccccc3S(=O)(=O)c3ccc(C(=O)OCC4CCCO4)cc32)c(C)c1` (stereo unspecified) stands inactive: -1.98%.

Turning to `Cc1ccc(-n2ncc3c(=O)n(Cc4ccccc4C)cnc32)cc1C`, the “activity change, negative = inhibition” value was inactive: -4.79%.

In the case of `CCOc1ccccc1NC(=O)CN1C(=O)C2(SCC(=O)N2c2ccc(C)cc2)c2ccccc21` (stereo unspecified), the “activity change, negative = inhibition” value is inactive: 11.4%. In the case of `CC(C)c1ccc(NC(=O)Cn2c(=O)n(Cc3nc(-c4ccccc4)no3)c(=O)c3cc4c(cc32)OCO4)cc1`, the outcome was inactive. In the case of `CC(=O)c1cccc(NC(=O)N2CCC(CN3CCCCC3)CC2)c1`, the “activity change, negative = inhibition” value was inactive: -10.3%. The same measure, in the same setting: under `CCOc1ccc2c(c1)c(=O)c(C(=O)c1ccc(C)cc1)cn2Cc1ccccc1OC` stands inactive: -2.1%; under `C[C@H]1O[C@H](O[C@H]2[C@H](O)[C@@H](O)[C@@H](O[C@H]3[C@H](O)[C@@H](O)C(O)O[C@H]3CO)O[C@H]2CO)[C@H](O)[C@@H](O)[C@H]1N[C@H]1C=C(CO)[C@@H](O)[C@H](O)[C@@H]1O` (stereo partly specified), inactive: -10.3%; under `CS(=O)(=O)N1CCc2cc(C(=O)Nc3ccc(S(N)(=O)=O)cc3)ccc21`, inactive: -8.17%.

For the molecule `COc1cc(Cl)c(NC(=O)C(NS(=O)(=O)c2cccs2)C(C)C)c(OC)c1` (stereo unspecified), the “activity change, negative = inhibition” value was inactive: 6.82%.

As for `CCCN(Cc1cccs1)C(=O)Nc1ccc(F)c(Cl)c1`, the call was inactive. Still for that read-out and setting: with `CCc1ccc(NC(=O)c2ccc(F)c(S(=O)(=O)NCCc3ccc(OC)c(OC)c3)c2)cc1` the entry was “inactive”; with `Cn1c(Oc2ccccc2)nc2c1c(=O)n(Cc1ccc(Cl)cc1Cl)c(=O)n2C`, “inactive”. Consider `CC(C)(C)OC(=O)N1CCC(c2c(C(=O)N3CCCCC3)cnn2-c2ccc(F)cc2F)CC1`, for which the “activity change, negative = inhibition” value was inactive: 2.86%. As to `Cc1ccc(-n2ncc(C(=O)NCCCN3CCN(C)CC3)c2C2CCN(C(=O)OC(C)(C)C)CC2)c(C)c1`, the “activity change, negative = inhibition” value is inactive: -27%.

For `Cc1cccc(C(=O)OCc2cc(=O)n3nc(-c4cccs4)sc3n2)c1`, the “activity change, negative = inhibition” value was inactive: -1.07%.

For `Cc1ccc(C)c(NC(=O)Cn2c(=O)n(Cc3ccc4c(c3)OCO4)c(=O)c3ccccc32)c1`, the molecule was called inactive. Take `CCCSc1nnc2n(-c3cccc(C)c3)c(=O)c3c4c(sc3n12)CCCC4`: the “activity change, negative = inhibition” value was inactive: 3.93%. `COC(=O)c1ccccc1NC(=O)Cn1c(=O)cc(C)c2c(C)nn(-c3cccc(Cl)c3C)c21`: the outcome was inactive.

With `CNS(=O)(=O)c1cn(CC(=O)N2CCN(c3ccccc3OC)CC2)cc1S(=O)(=O)NC`, the “activity change, negative = inhibition” value is inactive: -8.94%. On the same count and under the same terms, under `Cc1ccc(C(=O)CC2(O)C(=O)N(Cc3ccccc3)c3ccccc32)c(C)c1` (stereo unspecified) stands inactive: 6.41%; under `Cc1ccc2c(CC(=O)N(Cc3cccc(Cl)c3)C3CCS(=O)(=O)C3)coc2c1` (stereo unspecified), inactive: -4.99%. On the same count and under the same terms, under `CCOC(=O)C1CCCN(C(=O)c2ccc(NC(=O)c3nsc4ccccc34)cc2)C1` (stereo unspecified) stands inactive: 6.65%. Regarding `O=C(CCn1cnc2onc(-c3ccc(F)cc3)c2c1=O)N1CCN(c2ccccc2F)CC1`, the outcome was inactive. As to `COc1ccc(Cl)cc1NC(=O)Cn1cnc2sc(C)c(S(=O)(=O)N3CCN(c4ccccc4OC)CC3)c2c1=O`, the “activity change, negative = inhibition” value was inactive: 0.162%. Regarding `N#Cc1cccc(NC(=O)CCNS(=O)(=O)c2ccc3c(c2)CCN3C(=O)C2CC2)c1`, the molecule was called inactive. `COc1cccc(N2CCN(Cc3cc(=O)oc4cc(C)ccc34)CC2)c1`: the “activity change, negative = inhibition” value was inactive: -8.45%. Regarding `Cc1ccc2c(c1)C(c1ccc(F)cc1)N(C(=O)c1cccc(C(F)(F)F)c1)CC(=O)N2` (stereo unspecified), the “activity change, negative = inhibition” value was inactive: -4.44%. Same read-out and setting: under `Cc1ccc(-n2nnnc2CNC(=O)c2ccccc2C)cc1C` stands inactive: 21.2%; under `CN(C)c1ccc(CNC(=O)Cn2ccc3cc(S(=O)(=O)N4CCCCCC4)ccc32)cc1`, inactive: -5.86%; under `COc1ccc(-c2nc(Cn3c(=O)cc(C)c4c(C)nn(-c5ccccc5)c43)c(C)o2)c(OC)c1`, inactive: 0.0189%. On to `Cc1cc(C)cc(-n2ccnc2SCC(=O)Nc2nc3ccc(C)cc3s2)c1`, for which the “activity change, negative = inhibition” value was inactive: -15.2%. Still for that read-out and setting: with `CC1(COc2ccc3c(c2)ncn3-c2ccc3cccc(N4CCC(N)CC4)c3n2)COC1` the figure was inactive: -3.65%; with `Cc1c2cnn(CC(=O)N3CCN(c4ccc(F)cc4)CC3)c(=O)c2c(C)n1Cc1ccccc1F`, inactive: 4.99%. On the same count and under the same terms, with `CCOC(=O)c1c(C)[nH]c(CCC(=O)NCCCN2CCN(c3ccccc3F)CC2)c1C` the figure was inactive: 14.3%; with `O=C(Nc1nnc(S(=O)(=O)N2CCc3ccccc32)s1)c1ccccc1Cl`, inactive: -0.162%; with `COc1cc(Cl)c(C)cc1NC(=O)c1cnn(-c2ccc(C)cc2)c1-n1cccc1`, inactive: -0.811%. Regarding `CCOc1ccc(NC(=O)CCS(=O)(=O)c2ccc3nc(C)sc3c2)cc1`, the “activity change, negative = inhibition” value was inactive: 1.06%. Same read-out and setting: with `c1coc(-c2nc3ccccn3c2Nc2ccc3c(c2)OCCO3)c1` the figure was inactive: 0.792%. Turning to `COc1ccc(-n2c(SCC(=O)N3CCCc4ccccc43)nc3c([nH]c4ccccc43)c2=O)cc1`, the result was inactive.

For `COc1ccc(-c2cn3c(n2)sc2cc(C(=O)Nc4ccccc4F)ccc23)cc1`, the “activity change, negative = inhibition” value was inactive: -0.907%. Same read-out and setting: under `CCn1cc(S(=O)(=O)c2cccc(C)c2)c(=O)c2cc(F)c(N3CCCCC3C)cc21` (stereo unspecified) stands inactive: -2.08%. On to `Cc1nc(-c2ccc(C)c(N3CCN(C(=O)Nc4ccc(Br)cc4)CC3)c2)no1`, for which the outcome was inactive. On to `Cc1ccc(Cn2c(SCc3ccc(C(=O)NCCc4ccccc4)cc3)nc3ccncc32)cc1`, for which the “activity change, negative = inhibition” value was inactive: 0.224%. On the same count and under the same terms, under `COc1ccc(NC(=O)/C(C#N)=C/c2ccc(C)o2)cc1` stands inactive: 0.347%. In the case of `Cc1cc(-c2ccc(C)c(S(=O)(=O)N(Cc3cccs3)C(C)C)c2)on1`, the molecule was classed as inactive.

For `CC(C)(C)OC(=O)N1CCC(c2c(C(=O)Nc3ccc4c(c3)OCO4)cnn2-c2ccc(F)cc2F)CC1`, the “activity change, negative = inhibition” value was inactive: 21.4%. On the same count and under the same terms, under `Cc1ccc(CNC(=O)C(=O)NCC(c2cccs2)S(=O)(=O)c2cccs2)cc1` (stereo unspecified) stands inactive: 4.7%. Consider `CN(C)CCNC(=O)c1ccc2nc(CCc3ccccc3)oc2c1`, for which the result was inactive. In the case of `CCc1ccc2occ(CC(=O)Nc3c(C(=O)Nc4ccc(Cl)cc4)oc4ccccc34)c2c1`, the “activity change, negative = inhibition” value was inactive: -7.07%. Take `CCc1ccc(NC(=O)CSC2=Nc3ccccc3C3=NC(CC(=O)NCc4ccc5c(c4)OCO5)C(=O)N23)cc1` (stereo unspecified): the outcome was inactive. In the case of `Cc1ccccc1Cn1c(=O)n(CCCCC(=O)NCCc2ccccc2)c(=O)c2ccccc21`, the call was inactive. With `CN(C)c1ccc(NC(=O)Cn2c(SCc3ccc(F)cc3)nc3cccnc32)cc1`, the result was inactive. `CN(C)c1ccc(CNc2nc(-c3ccco3)nn2S(C)(=O)=O)cc1`: the “activity change, negative = inhibition” value was inactive: 4.79%. `CC1CCCN(c2ncnc3c2nc2n3CCCCC2)C1` (stereo unspecified): the outcome was inactive.

`CCOC(=O)c1ccc(NC(=O)c2cnc(N3CCCC3)nc2C)cc1`: the “activity change, negative = inhibition” value is inactive: 1.59%. On the same count and under the same terms, with `CCSc1nc2c([nH]c3ccccc32)c(=O)n1-c1ccc(OC)cc1` the figure was inactive: -8.6%; with `CCOC(=O)c1[nH]c2c(c1Cc1ccccc1)C(=O)CC(c1ccc(OC)cc1)C2` (stereo unspecified), inactive: -6.58%. On the same count and under the same terms, with `Cc1cccc(NC(=O)CCNS(=O)(=O)c2ccc3c(c2)CCCC(=O)N3)c1C` the figure was inactive: -24.9%; with `O=C(O)CCCC(=O)N1CCc2cc(S(=O)(=O)NCc3ccccc3)ccc21`, inactive: 6.46%.
